The text below walks through data of a collection of fitness landscapes (doi:10.1126/science.1257360).

The labels stand for the following.
B1: PhoQ; a variant is named by its letters at X, in order, P23837 (parent)
chain: MKKLLRLFFPLSLRVRFLLATAAVVLVLSLAYGMVALIGYSVSFDKTTFRLLRGESNLFYTLAKWENNKLHVELPENIDKQSPTMTLIYDENGQLLWAQRDVPWLMKMIQPDWLKSNGFHEIEADVNDTSLLLSGDHSIQQQLQEVREDDDDAEMTHSVAVNVYPATSRMPKLTIVVVDTIPVELKSSYMVWSWFIYVLSANLLLVIPLLWVAAWWSLRPIEALAKEVRELEEHNRELLNPATTRELTSLVRNLNRLLKSERERYDKYRTTLTDLTHSLKTPLXXLQXXLRSLRSEKMSVSDAEPVMLEQISRISQQIGYYLHRASMRGGTLLSRELHPVAPLLDNLTSALNKVYQRKGVNISLDISPEISFVGEQNDFVEVMGNVLDNACKYCLEFVEISARQTDEHLYIVVEDDGPGIPLSKREVIFDRGQRVDTLRPGQGVGLAVAREITEQYEGKIVAGESMLGGARMEVIFGRQHSAPKDE

The list shows a part of the results.

In the experiment the parent is B1. Kind of experiment: enrichment ratio after two sorts for PhoP signalling (ratio (wild type AVST 3.29)); higher = more functional. The note with it: with PhoP (E. coli).
For MQKP, the enrichment ratio is at most 0.25.

In the case of MREF, the enrichment ratio was at most 0.25.

Consider MSVD, for which the enrichment ratio is at most 0.25.

Consider FSSF, for which the enrichment ratio is at most 0.25.

With METG, the enrichment ratio was determined as 4.62.

Regarding WERE, the enrichment ratio is at most 0.25.

In the case of MATP, the enrichment ratio was at most 0.25.

Take QRRE: the enrichment ratio was at most 0.25.

As for ICCC, the enrichment ratio is at most 0.25.

For QIMK, the enrichment ratio was at most 0.25.

Regarding DWRK, the enrichment ratio is at most 0.25.

As for HYAY, the enrichment ratio was at most 0.25.

As to DDFE, the enrichment ratio was at most 0.25.

As for MRKN, the enrichment ratio was at most 0.25.

On to YAQW, for which the enrichment ratio is at most 0.25.

Regarding SPLT, the enrichment ratio is at most 0.25.

Turning to FIKM, the enrichment ratio is at most 0.25.

With LRVR, the enrichment ratio was at most 0.25.

Regarding STHI, the enrichment ratio was at most 0.25.

As to AWKA, the enrichment ratio is at most 0.25.

Take ACPY: the enrichment ratio is at most 0.25.

For FLGS, the enrichment ratio is at most 0.25.

As for SPYY, the enrichment ratio is at most 0.25.

With MMKL, the enrichment ratio was at most 0.25.

Regarding AIMK, the enrichment ratio was at most 0.25.

Turning to FSKQ, the enrichment ratio was at most 0.25.

With QFTM, the enrichment ratio is at most 0.25.

As for MRFG, the enrichment ratio was at most 0.25.

In the case of EPLC, the enrichment ratio is at most 0.25.

On to NDAM, for which the enrichment ratio is at most 0.25.

As for FPMS, the enrichment ratio was at most 0.25.

On to QHHL, for which the enrichment ratio was at most 0.25.

Turning to PHKP, the enrichment ratio was at most 0.25.

INIA: the enrichment ratio is at most 0.25.

In the case of QINI, the enrichment ratio is at most 0.25.

As for WGTD, the enrichment ratio is at most 0.25.

For PTKV, the enrichment ratio was at most 0.25.

Turning to VCSG, the enrichment ratio amounted to 0.44.

For the variant NKRW, the enrichment ratio was at most 0.25.

With ISWT, the enrichment ratio turned out to be 2.56.

Regarding LVMD, the enrichment ratio is at most 0.25.

For SVTH, the enrichment ratio amounted to 11.9.

On to DPNC, for which the enrichment ratio is at most 0.25.

Consider TCHF, for which the enrichment ratio is 8.33.

Regarding VTLV, the enrichment ratio worked out at 6.75.

Consider HSHY, for which the enrichment ratio is at most 0.25.

In the case of RYSQ, the enrichment ratio is at most 0.25.

Take KQHD: the enrichment ratio is at most 0.25.

DTIE: the enrichment ratio was at most 0.25.

With MQDG, the enrichment ratio was at most 0.25.

DICV: the enrichment ratio was at most 0.25.

On to IGYS, for which the enrichment ratio is at most 0.25.

Take QSWE: the enrichment ratio was at most 0.25.

With SVFH, the enrichment ratio is at most 0.25.

Take EGAC: the enrichment ratio was at most 0.25.

In the case of ECIF, the enrichment ratio was at most 0.25.

Turning to FPSI, the enrichment ratio came out at 0.994.

Consider PFMR, for which the enrichment ratio is at most 0.25.

For ICYG, the enrichment ratio was at most 0.25.

Take AIFT: the enrichment ratio was at most 0.25.

Turning to DILR, the enrichment ratio was at most 0.25.

In the case of LNGD, the enrichment ratio is at most 0.25.

Consider SMEM, for which the enrichment ratio was at most 0.25.

In the case of VACQ, the enrichment ratio was at most 0.25.

With NNAA, the enrichment ratio was at most 0.25.

Turning to DIPK, the enrichment ratio was at most 0.25.

LWLF: the enrichment ratio was at most 0.25.

With WRER, the enrichment ratio was at most 0.25.

For the variant FCMD, the enrichment ratio was at most 0.25.

PQCY: the enrichment ratio is at most 0.25.

On to KGSY, for which the enrichment ratio is at most 0.25.

Turning to DGFQ, the enrichment ratio is at most 0.25.

LMTM: the enrichment ratio was at most 0.25.

TIVQ: the enrichment ratio was at most 0.25.

With TFEK, the enrichment ratio was at most 0.25.

On to RMIP, for which the enrichment ratio was at most 0.25.

Regarding VSCY, the enrichment ratio is 0.66.

Consider ARCA, for which the enrichment ratio is at most 0.25.

As for YQFE, the enrichment ratio is at most 0.25.

On to PLPD, for which the enrichment ratio is at most 0.25.

Consider AVCD, for which the enrichment ratio came out at 6.23.

Consider LAHI, for which the enrichment ratio stood at 1.48.

On to IMCN, for which the enrichment ratio is at most 0.25.

Take TLIR: the enrichment ratio was at most 0.25.
